Measurements: the supplement of paper PMC8728848
The list shows a part of the results.

Legend:
Experiment in all cases: glycan array binding signal (z-score within array); higher = stronger binding
Conditions in all cases: glycan notation: IUPAC condensed, linker removed
[1] = target: Gal(b1-3)GalNAc
How it was run: (§1)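 Columns mapping to the same glycan were averaged after glycan names were converted to IUPAC-condensed notation. The data come from 3228 arrays in the Consortium for Functional Glycomics database, limited to those with an available protein sequence. Binding is reported as a within-array Z-score averaged across arrays of one protein sequence and across linkers.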

[2] = target: Gal(b1-3)GalNAc(b1-3)Gal(a1-4)Gal(b1-4)Glc
How it was run: as §1

[3] = target: Gal(b1-3)GalNAc(b1-3)Gal(b1-4)Glc
How it was run: as §1

[4] = target: Gal(b1-3)GalNAc(b1-3)Gal(b1-4)GlcNAc
How it was run: as §1

[5] = target: Gal(b1-3)GalNAc(b1-4)Gal(b1-4)Glc
How it was run: as §1

[6] = target: Gal(b1-3)GalNAc(b1-4)[Neu5Ac(a2-3)]Gal(b1-4)Glc
How it was run: as §1

[7] = target: Gal(b1-3)GlcNAc(b1-3)Gal(b1-3)GlcNAc
How it was run: as §1

[8] = target: Gal(b1-3)[Fuc(a1-4)]GlcNAc
How it was run: as §1

[9] = target: Gal(b1-3)[Fuc(a1-4)]GlcNAc(b1-3)Gal(b1-3)[Fuc(a1-4)]GlcNAc
How it was run: as §1

[10] = target: Gal(b1-3)[Fuc(a1-4)]GlcNAc(b1-3)Gal(b1-4)GlcNAc
How it was run: as §1

[11] = target: Gal(b1-3)[Fuc(a1-4)]GlcNAc(b1-3)Gal(b1-4)[Fuc(a1-3)]GlcNAc
How it was run: as §1

[12] = target: Gal(b1-3)[GlcNAc(b1-6)]GalNAc
How it was run: as §1

[13] = target: Gal(b1-3)[GlcNAc(b1-6)]GlcNAc
How it was run: as §1

[14] = target: Gal(b1-3)[Neu5Ac(a2-6)]GalNAc
How it was run: as §1

[15] = target: Gal(b1-3)[Neu5Ac(a2-6)]GlcNAc
How it was run: as §1

[16] = target: Gal(b1-3)[Neu5Ac(a2-6)]GlcNAc(a1-4)Gal(b1-4)Glc
How it was run: as §1

[17] = target: Gal(b1-3)[Neu5Ac(b2-6)]GlcNAc
How it was run: as §1

[18] = target: Gal(b1-4)GalNAc(a1-3)[Fuc(a1-2)]Gal(b1-4)GlcNAc
How it was run: as §1

[19] = target: Gal(b1-4)GalNAc(b1-3)[Fuc(a1-2)]Gal(b1-4)GlcNAc
How it was run: as §1

[20] = target: Gal(b1-4)Glc
How it was run: as §1

[21] = target: Gal(b1-4)Glc6S
How it was run: as §1

[22] = target: Gal(b1-4)GlcNAc
How it was run: as §1

[23] = target: Gal(b1-4)GlcNAc(b1-2)Man(a1-3)[Gal(b1-4)GlcNAc(b1-2)Man(a1-6)]Man(b1-4)GlcNAc(b1-4)GlcNAc
How it was run: as §1

[24] = target: Gal(b1-4)GlcNAc(b1-3)Gal(b1-3)GlcNAc
How it was run: as §1

[25] = target: Gal(b1-4)GlcNAc(b1-3)Gal(b1-4)Glc
How it was run: as §1

[26] = target: Gal(b1-4)GlcNAc(b1-3)Gal(b1-4)GlcNAc
How it was run: as §1

[27] = target: Gal(b1-4)GlcNAc(b1-3)Gal(b1-4)GlcNAc(b1-3)Gal(b1-4)GlcNAc
How it was run: as §1

[28] = target: Gal(b1-4)GlcNAc(b1-3)Gal(b1-4)[Fuc(a1-3)]GlcNAc(b1-3)Gal(b1-4)[Fuc(a1-3)]GlcNAc
How it was run: as §1

[29] = target: Gal(b1-4)GlcNAc(b1-3)GalNAc
How it was run: as §1

[30] = target: Gal(b1-4)GlcNAc(b1-3)[Gal(b1-4)GlcNAc(b1-6)]GalNAc
How it was run: as §1

[31] = target: Gal(b1-4)GlcNAc(b1-6)GalNAc
How it was run: as §1

[32] = target: Gal(b1-4)GlcNAc(b1-6)[Gal(b1-3)]GalNAc
How it was run: as §1

[33] = target: Gal(b1-4)GlcNAc(b1-6)[Gal(b1-3)]GlcNAc
How it was run: as §1

[34] = target: Gal3S(b1-3)GalNAc
How it was run: as §1

[35] = target: Gal3S(b1-3)GlcNAc
How it was run: as §1

[36] = target: Gal3S(b1-3)[Fuc(a1-4)]GlcNAc
How it was run: as §1

[37] = target: Gal3S(b1-4)Glc
How it was run: as §1

[38] = target: Gal3S(b1-4)Glc6S
How it was run: as §1

[39] = target: Gal3S(b1-4)GlcNAc
How it was run: as §1

[40] = target: Gal3S(b1-4)GlcNAc6S
How it was run: as §1

[41] = target: Gal3S6S(b1-4)GlcNAc
How it was run: as §1

[42] = target: Gal3S6S(b1-4)GlcNAc6S
How it was run: as §1

[43] = target: Gal4S(b1-4)GlcNAc
How it was run: as §1

[44] = target: Gal4S6S(b1-4)GlcNAc
How it was run: as §1

[45] = target: Gal6S(b1-4)Glc
How it was run: as §1

[46] = target: Gal6S(b1-4)Glc6S
How it was run: as §1

[47] = target: Gal6S(b1-4)GlcNAc
How it was run: as §1

[48] = target: GalNAc(a1-3)Gal
How it was run: as §1

[49] = target: GalNAc(a1-3)GalNAc
How it was run: as §1

[50] = target: GalNAc(b1-3)Gal(a1-4)Gal(b1-4)GlcNAc
How it was run: as §1

[51] = target: GalNAc(b1-4)GlcNAc
How it was run: as §1

[52] = target: Glc(a1-4)Glc
How it was run: as §1

[53] = target: Glc(a1-6)Glc(a1-6)Glc
How it was run: as §1

[54] = target: Glc(b1-4)Glc
How it was run: as §1

[55] = target: Glc(b1-6)Glc
How it was run: as §1

[56] = target: GlcA(b1-3)Gal
How it was run: as §1

[57] = target: GlcA(b1-6)Gal
How it was run: as §1

[58] = target: GlcNAc(a1-3)Gal(b1-4)GlcNAc
How it was run: as §1

[59] = target: GlcNAc(a1-6)Gal(b1-4)GlcNAc
How it was run: as §1

[60] = target: GlcNAc(b1-2)Gal(b1-3)GlcNAc
How it was run: as §1

[61] = target: GlcNAc(b1-2)Man(a1-3)[GlcNAc(b1-2)Man(a1-6)]Man(b1-4)GlcNAc(b1-4)GlcNAc
How it was run: as §1

[62] = target: GlcNAc(b1-3)Gal
How it was run: as §1

[63] = target: GlcNAc(b1-3)Gal(b1-3)GalNAc
How it was run: as §1

[64] = target: GlcNAc(b1-3)Gal(b1-4)Glc
How it was run: as §1

[65] = target: GlcNAc(b1-3)Gal(b1-4)GlcNAc
How it was run: as §1

[66] = target: GlcNAc(b1-3)Gal(b1-4)GlcNAc(b1-3)Gal(b1-4)GlcNAc
How it was run: as §1

[67] = target: GlcNAc(b1-3)GalNAc
How it was run: as §1

[68] = target: GlcNAc(b1-3)[GlcNAc(b1-4)][GlcNAc(b1-6)]GlcNAc
How it was run: as §1

[69] = target: GlcNAc(b1-3)[GlcNAc(b1-6)]Gal(b1-4)GlcNAc
How it was run: as §1

[70] = target: GlcNAc(b1-3)[GlcNAc(b1-6)]GlcNAc
How it was run: as §1

[71] = target: GlcNAc(b1-4)Gal(b1-4)GlcNAc
How it was run: as §1

[72] = target: GlcNAc(b1-4)GlcNAc(b1-4)GlcNAc
How it was run: as §1

[73] = target: GlcNAc(b1-4)GlcNAc(b1-4)GlcNAc(b1-4)GlcNAc(b1-4)GlcNAc
How it was run: as §1

B1: STA (Solanum tuberosum) (protein)
chain: NASAPLPYPQCGLKKGGGKCIKTGECCSIWGWCGTTSDYCAPGYCQKQCPGPYPQGRCGWQANGKSCPTGTGQCCSNAGWCGTTSDYCAPNNCQSQCKLPPPPPSPPPPPPSPPPPSPPPPPPSPPPPSPSPPPPPPSPPPPSPPPPSPPPPSPPPPPSPSPPPPPPSPPPPPPPLPYPQCGMKKGGGKCIKTGECCSIWGWCGTTSKYCSPGYCQMQCPDPYPEGRCGWQANGKSCPTGTGQCCSNAGWCGTTSAYCAPVNCQAQCNTTTLTSPIKNRMRGIESFMLNVV
[1]
  glycan array binding signal (z-score): -0.505
[2]
  glycan array binding signal (z-score): -0.513
[3]
  glycan array binding signal (z-score): -0.496
[4]
  glycan array binding signal (z-score): 0.265
[5]
  glycan array binding signal (z-score): -0.507
[6]
  glycan array binding signal (z-score): -0.504
[7]
  glycan array binding signal (z-score): -0.498
[8]
  glycan array binding signal (z-score): -0.507
[9]
  glycan array binding signal (z-score): -0.498
[10]
  glycan array binding signal (z-score): -0.505
[11]
  glycan array binding signal (z-score): -0.508
[12]
  glycan array binding signal (z-score): -0.415
[13]
  glycan array binding signal (z-score): -0.18
[14]
  glycan array binding signal (z-score): -0.505
[15]
  glycan array binding signal (z-score): -0.511
[16]
  glycan array binding signal (z-score): -0.498
[17]
  glycan array binding signal (z-score): -0.511
[18]
  glycan array binding signal (z-score): 0.918
[19]
  glycan array binding signal (z-score): 0.033
[20]
  glycan array binding signal (z-score): -0.505
[21]
  glycan array binding signal (z-score): -0.488
[22]
  glycan array binding signal (z-score): 1.65
[23]
  glycan array binding signal (z-score): -0.311
[24]
  glycan array binding signal (z-score): -0.498
[25]
  glycan array binding signal (z-score): -0.501
[26]
  glycan array binding signal (z-score): 1.71
[27]
  glycan array binding signal (z-score): 0.087
[28]
  glycan array binding signal (z-score): -0.51
[29]
  glycan array binding signal (z-score): -0.497
[30]
  glycan array binding signal (z-score): -0.506
[31]
  glycan array binding signal (z-score): 2.69
[32]
  glycan array binding signal (z-score): -0.499
[33]
  glycan array binding signal (z-score): -0.391
[34]
  glycan array binding signal (z-score): -0.483
[35]
  glycan array binding signal (z-score): -0.498
[36]
  glycan array binding signal (z-score): -0.49
[37]
  glycan array binding signal (z-score): -0.501
[38]
  glycan array binding signal (z-score): -0.472
[39]
  glycan array binding signal (z-score): 2.55
[40]
  glycan array binding signal (z-score): 2.58
[41]
  glycan array binding signal (z-score): -0.475
[42]
  glycan array binding signal (z-score): -0.414
[43]
  glycan array binding signal (z-score): 3.08
[44]
  glycan array binding signal (z-score): -0.483
[45]
  glycan array binding signal (z-score): -0.495
[46]
  glycan array binding signal (z-score): -0.493
[47]
  glycan array binding signal (z-score): -0.479
[48]
  glycan array binding signal (z-score): -0.079
[49]
  glycan array binding signal (z-score): -0.507
[50]
  glycan array binding signal (z-score): 2.05
[51]
  glycan array binding signal (z-score): 2.02
[52]
  glycan array binding signal (z-score): -0.501
[53]
  glycan array binding signal (z-score): -0.51
[54]
  glycan array binding signal (z-score): -0.513
[55]
  glycan array binding signal (z-score): -0.512
[56]
  glycan array binding signal (z-score): -0.51
[57]
  glycan array binding signal (z-score): -0.504
[58]
  glycan array binding signal (z-score): 2.22
[59]
  glycan array binding signal (z-score): -0.463
[60]
  glycan array binding signal (z-score): -0.506
[61]
  glycan array binding signal (z-score): -0.331
[62]
  glycan array binding signal (z-score): -0.504
[63]
  glycan array binding signal (z-score): -0.481
[64]
  glycan array binding signal (z-score): -0.502
[65]
  glycan array binding signal (z-score): 1.24
[66]
  glycan array binding signal (z-score): 1.75
[67]
  glycan array binding signal (z-score): -0.508
[68]
  glycan array binding signal (z-score): -0.491
[69]
  glycan array binding signal (z-score): 2.63
[70]
  glycan array binding signal (z-score): -0.269
[71]
  glycan array binding signal (z-score): 2.38
[72]
  glycan array binding signal (z-score): 2.13
[73]
  glycan array binding signal (z-score): 2.23
